Measurements from PubChem BioAssay AID504332 (National Center for Advancing Translational Sciences (NCATS), 2011).
Out of some 350,000 compounds screened, about 31,000 (8.9%) were called active. Inconclusive results, whose numbers are uncertain, are shown with a selection of clear calls. The call rests on the fitted dose curve; in most records, active means well fitted inhibition curve with a large enough effect; inconclusive means small, poorly fitted or top-dose-only effect; inactive means no such curve, though single readings can be large or run the other way. Potencies of inconclusive entries are doubtful fits and often do not repeat.

What follows are compounds tested against Histone-lysine N-methyltransferase EHMT2 (Homo sapiens) (UniProt Q96KQ7) (assay: qHTS Assay for Inhibitors of Histone Lysine Methyltransferase G9a). Details: G9a H3K9 monomethylation, AlphaScreen, 2 h; activity, negative = inhibition: at 59 µM (top of the series) unless noted.
Summary of the method: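 Readings reflect AlphaScreen signal from monomethyl-H3K9 antibody detection. HMT at 20 nM; substrate b-H3K9 500 nM; cofactor SAM 20 uM; 2 h RT reaction; compounds tested as titrations in qHTS with 15 min preincubation.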
Further: nearly all actives have a fitted effect of over 75% in size.
On the % scale 0 is the no-effect control and ±100 the full control effect; potency means the concentration at half of the fitted maximal effect; tags describe the fitted curve by direction and shape.

UniProt Q96KQ7, sequence (Q96KQ7 whole entry, looked up): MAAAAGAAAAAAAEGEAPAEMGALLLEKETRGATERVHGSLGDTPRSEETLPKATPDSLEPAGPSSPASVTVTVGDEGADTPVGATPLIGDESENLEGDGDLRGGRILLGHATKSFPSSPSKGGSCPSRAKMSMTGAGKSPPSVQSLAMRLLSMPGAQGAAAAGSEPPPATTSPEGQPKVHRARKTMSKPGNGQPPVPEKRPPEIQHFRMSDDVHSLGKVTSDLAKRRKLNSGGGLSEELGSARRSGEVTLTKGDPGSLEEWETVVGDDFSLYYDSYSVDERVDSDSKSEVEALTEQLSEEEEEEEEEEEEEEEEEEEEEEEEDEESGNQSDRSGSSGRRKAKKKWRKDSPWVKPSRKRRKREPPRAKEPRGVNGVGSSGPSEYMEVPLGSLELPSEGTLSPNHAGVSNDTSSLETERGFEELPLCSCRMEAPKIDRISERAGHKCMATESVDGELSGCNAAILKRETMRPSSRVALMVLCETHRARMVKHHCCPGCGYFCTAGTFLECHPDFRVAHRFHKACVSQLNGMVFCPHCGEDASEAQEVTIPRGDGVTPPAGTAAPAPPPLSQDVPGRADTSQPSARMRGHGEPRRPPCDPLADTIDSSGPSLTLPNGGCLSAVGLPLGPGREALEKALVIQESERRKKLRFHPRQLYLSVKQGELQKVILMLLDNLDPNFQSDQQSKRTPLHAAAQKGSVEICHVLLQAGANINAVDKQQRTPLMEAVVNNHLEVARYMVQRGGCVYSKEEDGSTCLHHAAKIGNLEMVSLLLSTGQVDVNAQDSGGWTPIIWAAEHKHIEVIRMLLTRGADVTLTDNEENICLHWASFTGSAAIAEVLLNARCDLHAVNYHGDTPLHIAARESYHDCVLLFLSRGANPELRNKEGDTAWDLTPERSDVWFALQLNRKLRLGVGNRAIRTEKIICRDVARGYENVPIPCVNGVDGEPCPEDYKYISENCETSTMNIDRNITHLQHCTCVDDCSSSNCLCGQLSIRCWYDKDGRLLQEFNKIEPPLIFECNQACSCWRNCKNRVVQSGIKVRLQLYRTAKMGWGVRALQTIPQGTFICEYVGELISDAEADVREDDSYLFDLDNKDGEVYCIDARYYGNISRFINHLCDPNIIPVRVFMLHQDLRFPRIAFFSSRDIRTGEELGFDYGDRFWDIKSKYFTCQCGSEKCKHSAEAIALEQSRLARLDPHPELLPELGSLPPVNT

Row | SMILES | Potency | activity, negative = inhibition
1 | Cc1cc(NC(=O)c2cc(-c3ccc4c(c3)OCO4)on2)n(-c2ccccc2)n1 | inconclusive: 89.1 µM [inhibitor, partial curve, poor fit] | –
2 | COc1ccc(CCNC(=S)NC(=O)c2ccccc2)cc1C | active: 56.2 µM | –
3 | COc1ccccc1C(=O)Nc1nnc(S(=O)(=O)N2CCC(C)CC2)s1 | active: 79.4 µM | –
4 | COc1cc(C(=S)N2CCOCC2)cc(OC)c1OC(=O)c1ccccc1[N+](=O)[O-] | inconclusive: 79.4 µM [inhibitor, partial curve] | –
5 | O=C(COC(=O)/C=C/c1ccccc1)Nc1cccnc1Cl | active: 50.1 µM | –
6 | CCc1ccc(NCc2cc3cc4c(cc3n(CC(=O)Nc3ccccc3C)c2=O)OCCO4)cc1 | inconclusive: 17.8 µM [inhibitor, single point] | –
7 | Cc1nn(C)cc1S(=O)(=O)N1CCN(c2ccccc2)CC1 | inconclusive: 56.2 µM [inhibitor, partial curve, poor fit] | –
8 | CSCCC(NC(C)=O)C(=O)OCC(=O)N(c1ccccc1)c1ccccc1 (stereo unspecified) | inconclusive: 89.1 µM [inhibitor, partial curve, poor fit] | –
9 | CN1CCCC(OC(=O)COc2ccccc2)C1 (stereo unspecified) | active: 50.1 µM | –
10 | Cc1cc(C(=O)Nc2cccc([N+](=O)[O-])c2)c(C)o1 | inconclusive: 22.4 µM [inhibitor, single point] | –
11 | CC(C)Cc1nnc(NC(=O)CN2C(=O)NC3(CCCC3)C2=O)s1 | inconclusive: 56.2 µM [inhibitor, partial curve, poor fit] | –
12 | Cc1ccc(S(=O)(=O)Cc2nc(-c3ccc(C(=O)NCCCOC(C)C)cc3)oc2C)cc1 | inconclusive: 7.08 µM [inhibitor, single point] | –
13 | c1ccc(-c2ccc(-c3ccccn3)nn2)nc1 | inconclusive: 17.8 µM [inhibitor, single point] | –
14 | C/C(CC(=O)Nc1ccc(N(C)C)cc1)=N\NC(=O)c1cnccn1 | inconclusive: 70.8 µM [inhibitor, single point] | –
15 | Cc1ccc2oc(C(=O)Nc3ccc(S(=O)(=O)Nc4nccc(C)n4)cc3)cc(=O)c2c1 | – | inactive: -29.9%
16 | Cc1ccc(NC(=O)CSc2nnc(N)s2)cc1S(=O)(=O)N1CCOCC1 | active: 50.1 µM | –
17 | COc1ccccc1OCCNC(=O)C(CCSC)NS(=O)(=O)c1ccccc1F (stereo unspecified) | – | inactive: -24.1% [at 102 µM]
18 | O=C(Nc1nnc(Cc2c[nH]c3ccccc23)s1)c1ccc(Cl)cc1Cl | inconclusive: 31.6 µM [inhibitor, single point] | –
19 | Cc1cc2c(cc(C(=O)N3CCC(C(=O)N4CCCC4)CC3)n2Cc2c(F)cccc2Cl)o1 | active: 50.1 µM | –
20 | COc1cccc(CNc2ccc(F)c(Cl)c2)c1 | active: 50.1 µM | –
21 | COc1cccc(CN2CCNC(=O)C2CC(=O)NCCc2ccccn2)c1 (stereo unspecified) | inconclusive: 79.4 µM [inhibitor, single point] | –
22 | COc1cc(S(=O)(=O)NC2CCCCC2C)ccc1Cl (stereo unspecified) | – | inactive: -20.6% [at 102 µM]

Row | SMILES | Potency | activity, negative = inhibition
23 | O=Cc1ccc(N2CCCC2)o1 | inconclusive: 6.31 µM [inhibitor, partial curve, poor fit] | –
24 | O=C1c2[nH]nc(-c3ccc(F)cc3)c2C(c2ccccc2F)N1c1ccccc1 (stereo unspecified) | inconclusive: 10 µM [inhibitor, partial curve, poor fit] | –
25 | CCOCCOc1nc2c(c(=O)n(C)c(=O)n2C)n1CCc1ccccc1 | inconclusive: 12.6 µM [inhibitor, partial curve, poor fit] | –
26 | COc1ccc(C2CCCN2C(=S)Nc2cccc(Cl)c2)cc1OC (stereo unspecified) | inconclusive: 50.1 µM [inhibitor, partial curve, poor fit] | –
27 | COC(=O)c1ccc(NC(=O)C2CCN(S(C)(=O)=O)CC2)cc1 | inconclusive: 89.1 µM [inhibitor, single point] | –
28 | COc1ccccc1N1CCN(C/C(O)=C(\C#N)c2nc(-c3ccccc3)cs2)CC1 | inconclusive: 35.5 µM [inhibitor, partial curve, poor fit] | –
29 | CCOc1ccc(C(=O)Nc2cc3c(cc2N2CCCC2)n(C)c(=O)c(=O)n3C)cc1OCC | inconclusive: 14.1 µM [inhibitor, partial curve] | –
30 | c1ccc(C2=Nn3c(nnc3-c3cccs3)SC2)cc1 | – | inactive: -1.77% [at 102 µM]
31 | COc1ccc(OC)c(NC(=O)COc2ccc3c(c2)CCC3)c1 | inconclusive: 7.08 µM [inhibitor, single point] | –
32 | CC(=Nc1ccc(C)cc1C)c1sc2ccccc2c1O | inconclusive: 50.1 µM [inhibitor, partial curve, poor fit] | –
33 | Fc1ccc(Nc2nc3ccccc3n3cnnc23)c(F)c1 | – | inactive: 2.18%
34 | O=C(NC(=S)N1CCc2ccccc21)c1ccco1 | inconclusive: 89.1 µM [inhibitor, single point] | –
35 | CCCOc1ccc(N2C(=O)CC(SCCN)C2=O)cc1 (stereo unspecified) | active: 3.55 µM | –
36 | COc1ccccc1NC(=O)CN(Cc1ccco1)C(=O)c1cncc(Br)c1 | inconclusive: 56.2 µM [inhibitor, partial curve] | –
37 | CCCCn1c(N)c(N(C)C(=O)c2ccccc2Oc2ccccc2)c(=O)[nH]c1=O | inconclusive: 3.55 µM [inhibitor, single point] | –
38 | O=C(c1ccccc1)N1N=C(c2ccc(F)cc2)CC1(O)C(F)(F)F (stereo unspecified) | inconclusive: 1.26 µM [inhibitor, partial curve, poor fit] | –
39 | COc1ccc(NC(=O)c2ccc3ncsc3c2)cc1 | inconclusive: 70.8 µM [inhibitor, partial curve, poor fit] | –
40 | Cc1oc2cc3oc(=O)c(CCC(=O)NC4CC4)c(C)c3cc2c1C | inconclusive: 89.1 µM [inhibitor, single point] | –
41 | COc1ccc(OC)c(NC2c3ncccc3C(=O)N2Cc2ccco2)c1 (stereo unspecified) | active: 50.1 µM | –
42 | COc1ccccc1CNC(=O)COCc1cc(-c2cccs2)on1 | – | inactive: -14.6%
43 | COCC1CCN(C(=O)c2cc(COc3cccc4cnccc34)on2)CC1 | inconclusive: 89.1 µM [inhibitor, single point] | –
44 | COc1ccc(Cl)cc1NS(=O)(=O)c1cccc(C(=O)NCC2CCCO2)c1 (stereo unspecified) | inconclusive: 15.8 µM [inhibitor, partial curve, poor fit] | –

Row | SMILES | Potency | activity, negative = inhibition
45 | Cc1nn(C(C)C(=O)Nc2ccccc2C(F)(F)F)c(=O)c2c1sc1ccccc12 (stereo unspecified) | inconclusive: 0.794 µM [inhibitor, full curve, poor fit] | –
46 | CN[C@H]1[C@@H](O)[C@@H](NC)[C@@H]2O[C@@]3(O)C(=O)C[C@@H](C)O[C@H]3O[C@H]2[C@H]1O | – | inactive: 31.9% [at 21.5 µM]
47 | Cc1ccc(NC(=O)c2ccc(NCCCN3CCOCC3)c([N+](=O)[O-])c2)cc1Cl | inconclusive: 25.1 µM [inhibitor, single point] | –
48 | COc1cc(/C=C2\NC(=S)N(C)C2=O)ccc1O | inconclusive: 50.1 µM [inhibitor, partial curve, poor fit] | –
49 | OCCN(Cc1ccccc1)Cc1ccc(Cl)cc1 | active: 22.4 µM | –
50 | O=C(NC(c1ccccc1)c1ccccn1)c1cccc([N+](=O)[O-])c1 (stereo unspecified) | inconclusive: 1.58 µM [inhibitor, full curve, poor fit] | –
51 | COc1ccc(-n2ccnc(NCCc3ccccc3)c2=O)cc1OC | inconclusive: 12.6 µM [inhibitor, partial curve, poor fit] | –
52 | COc1ccc(NC(=O)c2nc(-c3ccc(C)cc3)n3c2CCCCC3)cc1 | inconclusive: 22.4 µM [inhibitor, partial curve, poor fit] | –
53 | CN1Cc2c(N3CCOCC3)nc3sc(C(=O)c4ccccc4)c(N)c3c2CC1(C)C | active: 50.1 µM | –
54 | CN1CCN(CCNC(=O)c2cnn(-c3ccc(Cl)cc3)c2C2CCN(C(=O)OC(C)(C)C)CC2)CC1 | – | inactive: -3.66%
55 | CCOC(=O)N1CCN(C(=O)CS(=O)Cc2nc(-c3ccc(C)cc3)oc2C)CC1 (stereo unspecified) | inconclusive: 89.1 µM [inhibitor, single point] | –
56 | CCOc1ccc(-c2nonc2NC(=O)c2oc3ccc(CC)cc3c2C)cc1 | – | inactive: 71.8%
57 | C=CCN(CC=C)c1nc2ccccc2nc1C(C#N)C(=O)OC(C)C (stereo unspecified) | inconclusive: 28.2 µM [inhibitor, single point] | –
58 | COc1ccc(N(CC(=O)NC(C)C)S(=O)(=O)c2ccc(NC(C)=O)cc2)cc1 | active: 1.41 µM | –
59 | COC(=O)C(C)N1C(=O)S/C(=C\c2cc(C)n(-c3ccccn3)c2C)C1=O (stereo unspecified) | active: 56.2 µM | –
60 | CCN(CC)CCCNC(=O)CCC(=O)Nc1ccc2nc(N3CCCCC3)cc(C)c2c1 | inconclusive: 100 µM [inhibitor, single point] | –
61 | CCCCSc1nnc(NC(=O)CCc2ccccc2)s1 | inconclusive: 31.6 µM [inhibitor, partial curve, poor fit] | –
62 | CC(C)(C)N(Cc1ccccc1)C(=O)c1ccc(Cl)cc1[N+](=O)[O-] | inconclusive: 50.1 µM [inhibitor, partial curve] | –
63 | Cc1ccc2oc(-c3ccc(Cl)c(NC(=O)c4cc5ccccc5o4)c3)nc2c1 | inconclusive: 28.2 µM [inhibitor, partial curve, poor fit] | –
64 | O=C(Nc1nc2ccccc2s1)c1cc(-c2ccco2)nc2ccccc12 | inconclusive: 39.8 µM [inhibitor, single point] | –
65 | COc1ccc(CCNC(=O)C(C)n2nc(C)c3sc4ccccc4c3c2=O)c(OC)c1 (stereo unspecified) | inconclusive: 39.8 µM [inhibitor, single point] | –
66 | CCC(c1nnnn1Cc1ccc(OC)cc1)N(CCCO)Cc1cc2cc3c(cc2[nH]c1=O)OCO3 (stereo unspecified) | inconclusive: 31.6 µM [inhibitor, single point] | –
